Scores with a large standard error are left out. Two further conditions of the source, in which the scores hardly spread, are not listed. In variant names, del marks residues removed and ins residues inserted between the two positions. For part of these data: How much ogerin was present is not stated here.
B1: GPR68, Q15743 (parent)
chain: MGNITADNSSMSCTIDHTIHQTLAPVVYVTVLVVGFPANCLSLYFGYLQIKARNELGVYLCNLTVADLFYICSLPFWLQYVLQHDNWSHGDLSCQVCGILLYENIYISVGFLCCISVDRYLAVAHPFRFHQFRTLKAAVGVSVVIWAKELLTSIYFLMHEEVIEDENQHRVCFEHYPIQAWQRAINYYRFLVGFLFPICLLLASYQGILRAVRRSHGTQKSRKDQIQRLVLSTVVIFLACFLPYHVLLLVRSVWEASCDFAKGVFNAYHFSLLLTSFNCVADPVLYCFVSETTHRDLARLRGACLAFLTCSRTGRAREAYPLGAPEASGKSGAQGEEPELLTKLHPAFQTPNSPGSGGFPTGRLA

Columns and labels:
[1] = variants of: B1; assay: cAMP reporter score (Enrich2 score, wild type = 0); higher = more signal; HEK293T, FACS bins
[2] = variants of: B1; assay: surface expression score (Enrich2 score, wild type = 0); higher = more signal; HEK293T, FACS bins

| Variant | cAMP reporter score ([1]; pH 5.5) | cAMP reporter score ([1]; pH 6) | cAMP reporter score ([1]; pH 6.5, modulator: ogerin) | cAMP reporter score ([1]; pH 6, modulator: ogerin) | surface expression score [2] |
| --- | --- | --- | --- | --- | --- |
| W146H | -0.872 | -0.985 | -0.774 |  |  |
| W146I | -0.546 | -1.43 | -0.618 | -1.65 | -1.89 |
| W146K | -1.22 |  | -2.15 | -2.43 | -3.65 |
| W146L | -0.196 |  | -1.47 | -1.12 |  |
| W146N | -1.15 |  | -0.424 | -3.01 | -1.69 |
| W146P | -2.59 | -0.899 | -0.562 |  | -2.32 |
| W146Q | -1.33 | -0.535 | -0.433 | -0.648 |  |
| W146R | -0.898 | -0.49 | -0.554 | -0.822 | -0.541 |
| W146T | -0.405 | -0.623 | -0.392 | -1.39 | -1.28 |
| W146V | -1.19 | -0.557 |  | -0.748 |  |
| W146_A147insGS | -2 | -0.668 | -1.39 | -1.25 | -2.15 |
| W146_A147insGSG | -0.924 | -1.09 | -0.741 |  |  |
| A147_K148del | -1.44 | -1.16 | -1.69 | -2.22 | -2.02 |
| A147_K148insGSG | -2.12 |  | -1.39 | -1.78 |  |
| A147del | -1.04 | -0.656 | -0.747 | -1.85 | -1.85 |
| K148_E149insGS | -0.408 |  | -0.589 | -2.03 | -1.91 |
| E149_L150insG | -1.52 | -1.54 | -0.937 | -1.22 | -0.705 |
| E149_L151del | -1.84 | -0.835 | -0.673 | -1.99 | -1.92 |

| Variant | cAMP reporter score ([1]; pH 5.5) | cAMP reporter score ([1]; pH 6) | cAMP reporter score ([1]; pH 6.5, modulator: ogerin) | cAMP reporter score ([1]; pH 6, modulator: ogerin) | surface expression score [2] |
| --- | --- | --- | --- | --- | --- |
| E149del | -0.366 | -0.086 | -1.2 | -1.64 | -2.22 |
| L150A | 0.116 | -1.08 | -1.44 | -1.11 | -0.305 |
| L150C | -0.072 | -0.547 | -0.619 | -0.59 |  |
| L150D | -1.54 | -0.854 | -0.997 | -2.28 | -2.14 |
| L150E | -0.566 | 1.19 |  | -1.3 | -2.71 |
| L150F | -0.178 | -0.341 | -0.665 | -0.605 | -0.754 |
| L150G | 0.016 | -1.04 | -0.981 | -1.32 | -0.654 |
| L150I | 0.467 | 0.389 | -0.779 | 0.462 | 0.846 |
| L150K | -2.65 | -2.02 | -1.19 | -1.15 |  |
| L150N | -1.08 |  |  |  |  |
| L150P | 0.265 |  | -1.66 |  | -2.4 |
| L150Q | -1.14 |  | -0.599 | -1.84 | -2.65 |
| L150S | -0.35 |  | -1.14 | -0.394 | -0.964 |
| L150T | -0.803 | -0.48 | -1.12 | -0.974 | -1.67 |
| L150V | 0.878 | 0.94 | 0.119 | 0.606 | 1.3 |
| L150W | 3.92 |  | -0.437 |  |  |
| L150Y | 0.452 |  |  | -0.601 | -1.15 |
| L150_L151insGS | -2.21 | -0.912 | -1.42 |  |  |

Source: the GPR68 mutational scans of Howard et al. (2025)
